Not every entry of the source has a single result; some have several. This is not the full list of results. There may be further records. Values that stand side by side seem to repeat one measurement on other runs, samples or individuals.
Assay: Mouse PK
Type: in vivo
Conditions: PO 20 mg/kg

Cn1cc(-n2cnc3c(NCc4nc5cc(Cl)c(Cl)cc5[nH]4)nc(N4CCOCC4)nc32)cn1 [Compound 5, N-((5,6-dichloro-1H-benzo[d]imidazol-2-yl)methyl)-9-(1-methyl-1H-pyrazol-4-yl)-2-morpholino-9H-purin-6-amine]
AUClast: 697216 min*ng/mL and 23 μM.hr [columns of one line]

Source: patent publication US11666578B2, “Small molecule inhibitors of CDK12/CDK13” (The Scripps Research Institute, priority 2018, dated 2023)
